In PMC4336329 (PLoS ONE, 2015):
The whole screen tested about 310,000 compounds, of which about 14,000 (4.5%) showed an effect of 50% or more. The effect is printed as a negative number. This is one part of the list.
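Note: peak tail current of the secondary pulse compared with the same well before compound.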

These molecules were tested against human ether-à-go-go-related gene (hERG) potassium channel (human, UniProt Q12809) (assay: primary screen, population patch clamp on CHO cells stably expressing hERG).
Chain of human ether-à-go-go-related gene (hERG) potassium channel (Q12809 whole entry, looked up): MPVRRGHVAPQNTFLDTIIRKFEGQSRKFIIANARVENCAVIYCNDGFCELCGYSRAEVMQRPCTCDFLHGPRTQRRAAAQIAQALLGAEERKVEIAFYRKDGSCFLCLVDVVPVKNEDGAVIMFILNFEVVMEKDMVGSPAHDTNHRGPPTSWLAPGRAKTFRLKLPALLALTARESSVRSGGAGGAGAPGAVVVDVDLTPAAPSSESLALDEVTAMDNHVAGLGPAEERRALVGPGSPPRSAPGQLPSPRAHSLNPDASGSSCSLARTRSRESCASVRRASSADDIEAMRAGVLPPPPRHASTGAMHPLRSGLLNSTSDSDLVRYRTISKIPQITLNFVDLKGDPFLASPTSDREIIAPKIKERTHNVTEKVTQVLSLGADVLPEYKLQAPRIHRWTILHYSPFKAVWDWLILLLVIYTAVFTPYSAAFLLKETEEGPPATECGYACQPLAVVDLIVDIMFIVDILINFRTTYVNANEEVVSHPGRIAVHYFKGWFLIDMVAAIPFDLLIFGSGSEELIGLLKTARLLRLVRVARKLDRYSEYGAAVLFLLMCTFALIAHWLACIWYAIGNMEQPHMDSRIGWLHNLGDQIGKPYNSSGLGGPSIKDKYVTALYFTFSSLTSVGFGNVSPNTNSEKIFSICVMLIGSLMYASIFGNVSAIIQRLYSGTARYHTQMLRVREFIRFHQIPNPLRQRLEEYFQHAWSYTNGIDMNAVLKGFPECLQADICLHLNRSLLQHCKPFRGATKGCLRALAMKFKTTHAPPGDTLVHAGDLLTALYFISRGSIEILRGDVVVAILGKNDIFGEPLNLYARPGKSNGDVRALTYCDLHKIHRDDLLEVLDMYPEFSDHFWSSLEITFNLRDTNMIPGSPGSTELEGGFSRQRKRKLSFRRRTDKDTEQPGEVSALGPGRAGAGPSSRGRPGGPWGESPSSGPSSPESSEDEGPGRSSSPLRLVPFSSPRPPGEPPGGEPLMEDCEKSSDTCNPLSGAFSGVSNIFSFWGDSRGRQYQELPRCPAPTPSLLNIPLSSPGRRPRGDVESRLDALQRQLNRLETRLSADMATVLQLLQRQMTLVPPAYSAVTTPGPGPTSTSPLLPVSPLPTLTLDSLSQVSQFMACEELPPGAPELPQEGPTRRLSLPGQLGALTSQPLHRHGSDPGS
CN(C)C(=S)SCC(=O)Nc1ccc(Cl)cc1Cl was tested, and the “hERG current change (%, negative = inhibition) at 10uM” value was -2.67%. With O=[N+]([O-])c1cc(S(=O)(=O)Nc2ccccc2)ccc1NCc1ccccc1 the “hERG current change (%, negative = inhibition) at 10uM” value was 7.3%. With NNC(=S)Nc1ccc(S(=O)(=O)N2CCOCC2)cc1 the “hERG current change (%, negative = inhibition) at 10uM” value was 14.9%. In the case of COc1ccc2nc(NC(=O)Cn3cnc4ccccc4c3=O)sc2c1, the “hERG current change (%, negative = inhibition) at 10uM” value was -4.49%. In the case of CCOC(=O)C1CCN(S(=O)(=O)c2c[nH]c(=O)[nH]c2=O)CC1, the “hERG current change (%, negative = inhibition) at 10uM” value was -31.6%. O=C(Nc1nnc(CCS(=O)(=O)c2ccc(Br)cc2)s1)c1ccc([N+](=O)[O-])cc1 was tested, and the “hERG current change (%, negative = inhibition) at 10uM” value was -0.687%. For CCN(CC)S(=O)(=O)c1ccc(C)c(N=C=S)c1, the “hERG current change (%, negative = inhibition) at 10uM” value was -0.324%. In the case of O=S1(=O)CC2NC(=S)N(c3cccc(Br)c3)C2C1 (stereo not shown), the “hERG current change (%, negative = inhibition) at 10uM” value was 11.5%. With N#C/C(=C(O)\C=C\c1ccccc1)c1nc2ccccc2[nH]1 the “hERG current change (%, negative = inhibition) at 10uM” value was 13.6%. With CN1CC(=O)N(C)c2ncn(Cc3ccccc3)c2C1=O the “hERG current change (%, negative = inhibition) at 10uM” value was 3.75%. COc1cc(NC(=O)CN2C(=O)C(C)N(c3ccc(C)cc3)C2=O)cc(OC)c1 (stereo not shown) was tested, and the “hERG current change (%, negative = inhibition) at 10uM” value was -7.64%. For COC(=O)/C=C1\SC(N2CCOCC2)=C(c2ccc(OC)cc2)C1=O, the “hERG current change (%, negative = inhibition) at 10uM” value was 21.1%. With COc1cc2c(cc1OC)/C(=C/c1ccc(Br)cc1)C(=O)OC2 the “hERG current change (%, negative = inhibition) at 10uM” value was -6.2%. With CC(=O)Sc1nc(-c2ccccc2)[nH]c1S(=O)(=O)c1ccc(C)cc1 the “hERG current change (%, negative = inhibition) at 10uM” value was -0.451%. With C/C(=N\NC(=O)c1ccccc1O)c1c(O)cc(C)oc1=O the “hERG current change (%, negative = inhibition) at 10uM” value was -7.48%. CCOC(=O)N1CCN(S(=O)(=O)N2CCCC(C(=O)NCCc3ccc(OCC)c(OCC)c3)C2)CC1 (stereo not shown) was tested, and the “hERG current change (%, negative = inhibition) at 10uM” value was -6.03%. COc1ccc(NC2CC(=O)NC2=O)cc1 (stereo not shown) was tested, and the “hERG current change (%, negative = inhibition) at 10uM” value was 5.24%. With CC1=C(/C=N/Nc2ccc([N+](=O)[O-])cc2[N+](=O)[O-])C(C)(C)CCC1 the “hERG current change (%, negative = inhibition) at 10uM” value was 9.36%. With Cc1cc(=O)oc2cc(OCCSCCN3CCOCC3)ccc12 the “hERG current change (%, negative = inhibition) at 10uM” value was 6.19%. COc1ccc(NC(=O)CN2CCN(CC(=O)Nc3ccccc3Cl)CC2)c(OC)c1 was tested, and the “hERG current change (%, negative = inhibition) at 10uM” value was -78%. For COc1ccc(-c2cc3ccccc3oc2=O)cc1NC(=S)NC(=O)c1ccc2c(c1)OCCO2, the “hERG current change (%, negative = inhibition) at 10uM” value was -0.141%. CN1CCN(C(=O)c2ccccc2NS(=O)(=O)c2ccc(F)cc2)CC1 was tested, and the “hERG current change (%, negative = inhibition) at 10uM” value was 10.4%. Cc1cc(C2(c3ccc(O)c(C)c3)OC(=O)c3ccccc32)ccc1O was tested, and the “hERG current change (%, negative = inhibition) at 10uM” value was -25.9%. CCC(C)NC(=O)C1CCC(=O)N(c2cc(OC)c(OC)c(OC)c2)C1c1ccc(OC)cc1 (stereo not shown) was tested, and the “hERG current change (%, negative = inhibition) at 10uM” value was 22.2%. For CSc1ccccc1C(=O)C1CCCN(S(=O)(=O)c2c(C)noc2C)C1 (stereo not shown), the “hERG current change (%, negative = inhibition) at 10uM” value was 1.91%. In the case of C[C@@H](NC(=O)[C@@H]1Cc2ccccc2CN1C(=O)OC(C)(C)C)C(=O)NCC1CCCO1 (stereo partly shown), the “hERG current change (%, negative = inhibition) at 10uM” value was 9.8%. In the case of CC(=O)c1ccc(OCC(O)CN2CCN(c3ccccn3)CC2)cc1.Cl (stereo not shown), the “hERG current change (%, negative = inhibition) at 10uM” value was -25.8%. With CN(NC(=O)Nc1ccc(Cl)cc1)c1ncc(C(F)(F)F)cc1Cl the “hERG current change (%, negative = inhibition) at 10uM” value was 12.6%. COc1ccc(C(=O)CN2CCN(c3ccc(Cl)cc3)CC2)cc1OC was tested, and the “hERG current change (%, negative = inhibition) at 10uM” value was -44.6%. With O=C1Nc2ccc(S(=O)(=O)N3CCCC3C(=O)O)c3cccc1c23 (stereo not shown) the “hERG current change (%, negative = inhibition) at 10uM” value was 21.5%. With COc1cccc(CN(C)C(=O)C2CCC(=O)N(Cc3cccc(F)c3)C2)c1 (stereo not shown) the “hERG current change (%, negative = inhibition) at 10uM” value was 2.77%. With CCCc1cc(-n2ccnc2C)n2c(nc3ccccc32)c1C#N the “hERG current change (%, negative = inhibition) at 10uM” value was 0.616%. COc1ccc(-c2cc(=O)oc3cc(OCC(=O)NCCN4CCOCC4)ccc23)cc1 was tested, and the “hERG current change (%, negative = inhibition) at 10uM” value was -19.8%. In the case of O=C(COc1ccc2ccc(=O)oc2c1)NC1CCN(Cc2ccccc2)CC1, the “hERG current change (%, negative = inhibition) at 10uM” value was -55.2%. With COc1cc(NC(=O)CN2CCN(c3ccccc3F)CC2)cc(OC)c1 the “hERG current change (%, negative = inhibition) at 10uM” value was -10.2%. O=C(COc1ccc(Cl)cc1[N+](=O)[O-])N1CCCCC1 was tested, and the “hERG current change (%, negative = inhibition) at 10uM” value was -13.7%. COc1ccc(-c2ccnc3c(Br)c(C)nn23)cc1 was tested, and the “hERG current change (%, negative = inhibition) at 10uM” value was 2.25%. CC(C)NC(=O)COc1ccc2c(c1)C(=O)CC(C)(C)O2 was tested, and the “hERG current change (%, negative = inhibition) at 10uM” value was 18.5%. With COc1cc(O)c(C(CCN2CCOCC2)c2ccc3c(c2)OCO3)c(OC)c1 (stereo not shown) the “hERG current change (%, negative = inhibition) at 10uM” value was -59.5%. With CC1=Nc2ccc(Br)cc2C(c2ccccc2)N1CC(=O)O (stereo not shown) the “hERG current change (%, negative = inhibition) at 10uM” value was 33.7%. In the case of COC(=O)c1cc2ccccc2n1Cc1ccc(Cl)nc1, the “hERG current change (%, negative = inhibition) at 10uM” value was 12.3%. For CCOc1ccccc1N1C(=O)CC(Sc2ncccc2C(=O)O)C1=O (stereo not shown), the “hERG current change (%, negative = inhibition) at 10uM” value was 21.6%. For O=[N+]([O-])c1cccc(C(=Nc2cccc(Cl)c2)NO)c1, the “hERG current change (%, negative = inhibition) at 10uM” value was -20%.
